Experimental data published in PubChem BioAssay AID488969 (Vanderbilt High Throughput Screening Facility, 2010).
The full ranking holds about 110,000 compounds; the median of “z-score” is about -0.1, and the highest 2% start at about 2. The list shows a part of the results. The source made the active and inactive calls.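 How the source made its calls: active means z-score in the third read window above 3 or below -3; inactive means the rest.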

target: Metabotropic glutamate receptor 8 (Rattus norvegicus) (UniProt P70579); assay: rat mGluR8 modulators via GIRK flux, primary screen, cell-based, thallium flux, HTS (AID 488969); conditions: HEK293 rat mGluR8, GIRK (G protein-gated inwardly rectifying potassium channel) thallium flux, FluoZin2; at 10 µM; stronger effect = higher value; submaximal glutamate (EC20) added with thallium
Sequence of UniProt P70579 (P70579 whole entry, looked up): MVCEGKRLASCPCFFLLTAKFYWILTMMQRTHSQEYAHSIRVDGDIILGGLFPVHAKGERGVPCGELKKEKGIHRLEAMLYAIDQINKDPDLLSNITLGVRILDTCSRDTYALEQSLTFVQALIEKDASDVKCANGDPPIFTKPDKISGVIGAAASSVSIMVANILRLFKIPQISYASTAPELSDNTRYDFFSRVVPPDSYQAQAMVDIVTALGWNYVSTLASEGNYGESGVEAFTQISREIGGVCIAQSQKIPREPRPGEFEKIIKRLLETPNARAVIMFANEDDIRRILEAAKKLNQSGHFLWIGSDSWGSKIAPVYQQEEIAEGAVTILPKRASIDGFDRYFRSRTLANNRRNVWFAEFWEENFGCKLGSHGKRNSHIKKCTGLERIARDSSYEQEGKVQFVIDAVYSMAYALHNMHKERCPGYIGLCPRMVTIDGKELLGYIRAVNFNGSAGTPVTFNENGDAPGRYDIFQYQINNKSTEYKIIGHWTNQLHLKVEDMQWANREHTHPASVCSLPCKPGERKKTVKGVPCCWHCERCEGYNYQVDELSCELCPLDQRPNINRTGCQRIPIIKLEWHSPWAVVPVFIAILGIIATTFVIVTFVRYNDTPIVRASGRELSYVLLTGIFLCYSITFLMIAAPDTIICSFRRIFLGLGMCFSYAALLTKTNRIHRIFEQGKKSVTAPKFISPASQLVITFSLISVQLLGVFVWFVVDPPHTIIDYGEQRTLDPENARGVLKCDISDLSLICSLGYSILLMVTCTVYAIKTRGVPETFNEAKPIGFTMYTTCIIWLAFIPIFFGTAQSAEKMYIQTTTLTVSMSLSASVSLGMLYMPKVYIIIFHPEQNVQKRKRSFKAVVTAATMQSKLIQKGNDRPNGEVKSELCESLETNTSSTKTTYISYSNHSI

Row | Compound | z-score
1 | CCC(=O)N1CCc2cc(S(=O)(=O)NCCN3CCC(C)CC3)ccc21 | 0.0953
2 | CCN(C(=S)NC(=O)CCc1ccccc1)c1ccccc1 | 1.5
3 | CCCOc1ccc(/C(CC)=N/NC(=O)C2(C)CC2(Br)Br)cc1 (configuration not stated) | -0.0774
4 | COc1cccc(NC(=O)c2ccc3snnc3c2)c1 | 0.779
5 | COc1ccc(C)cc1NC(=O)c1cc2ccccc2o1 | 0.00863
6 | Cc1cc(C)n(CCSCC(=O)O)n1 | 0.237
7 | O/N=C1\CCCc2oc3c(c21)CCCC3 | -0.00941
8 | CCC(C)C(=O)N1c2ccccc2C(=C2SC(C(=O)OC)=C(C(=O)OC)S2)C(=S)C1(C)C (configuration not stated) | -0.158
9 | C/C(N)=C(/C#N)C(=O)CSc1nc2cc(Cl)ccc2s1 | 1.39
10 | COc1ccc(NC(=O)CSc2nnc(-c3ccccc3C)n2N)cc1 | 0.119
11 | CCCNC(=O)c1ccc(-c2nc3ccccc3s2)s1 | -0.0895
12 | CCN(CC(=O)Nc1ccc2c(c1)CCC2)Cc1nc2ccccc2c(=O)[nH]1 | -0.577
13 | Nc1nnc(SCc2ccc(F)cc2Cl)s1 | 0.48
14 | CN(C)c1ncc(S(=O)(=O)c2ccc(Cl)cc2)c(-c2ccc(Cl)cc2Cl)n1 | -0.12
15 | CCOc1cc(S(=O)(=O)NCc2ccco2)c(OCC)cc1-n1cnnn1 | -0.809
16 | COc1nc(C)ccc1-c1noc(-c2ccco2)n1 | 0.398
17 | CN(C)CCCOC(=O)COc1ccc(C(C)(C)C)cc1 | 0.0363
18 | COc1ccc(-c2nnn(CC(=O)N(Cc3ccc(F)cc3)C(C(=O)NC3CCCC3)c3ccc(F)cc3)n2)cc1 (configuration not stated) | -0.171
19 | Cc1ccc(C)n1NC(=O)c1ccc(Cl)cc1Cl | 0.557
20 | O=C(Cn1cnc2ccccc2c1=O)Nc1ccc2c(c1)CCC2 | 0.108
21 | Nc1ccc(N2CCN(c3ccc(Cl)c(Cl)c3)CC2)cc1 | 0.112
22 | CCOC(=O)c1ccc(NC(=S)NCCc2ccccc2)cc1 | 0.0663

Row | Compound | z-score
23 | CCc1ccc(C(=O)NCc2ccc(Cl)cc2)cc1 | -0.109
24 | Cc1ccc(C(O)c2nc3ccccc3n2C(C)C)cc1 (configuration not stated) | -0.553
25 | COC(=O)Cc1c(C)c2ccc(OCc3nn[nH]n3)cc2oc1=O | 0.162
26 | CN1CCN(CC(=O)Nc2nnc(-c3cccs3)s2)CC1 | -0.226
27 | CC1(C)CC(=O)C2=C(C1)N(Cc1ccccc1)C(=O)C2(NC(=O)C(C)(C)C)C(F)(F)F (configuration not stated) | -0.00164
28 | Cc1c(C(=O)O)c(=S)sn1CCOc1ccccc1 | active: -3.63
29 | NC(=O)c1cc(N2C(=O)C3CC=CCC3C2=O)ccc1N1CCCCC1 (configuration not stated) | -0.704
30 | O=C(c1ccccc1)N1CC(COc2ccccc2)OC(c2ccco2)O1 (configuration not stated) | -0.151
31 | COc1ccc(C(NC(=O)CNC(C)=O)C(=O)Nc2ccc3c(c2)OCCO3)cc1 (configuration not stated) | -0.0485
32 | O=C(c1ccccc1)N1CCN(Cc2c[nH]c3ccccc23)CC1 | 0.433
33 | COc1cc(OC)cc(-c2nc3ccccc3c(=O)n2OC(=O)c2ccc(Br)cc2)c1 | -0.716
34 | COc1ccc(OCC(=O)N2CCN(c3cccc(Cl)c3)CC2)cc1 | -0.493
35 | COc1ccc(C(=O)Nc2cc([N+](=O)[O-])ccc2N2CCN(C)CC2)cc1 | -0.157
36 | O=C(COC(=O)c1ccc2ccccc2n1)Nc1ncc(C(F)(F)F)cc1Cl | -0.0218
37 | O=C(CCN1CCOCC1)Nc1c(-c2ccccc2)c2cc(Br)ccc2[nH]c1=O | 0.572
38 | CCc1cccc(NC(=O)Cc2ccc(OC)c(OC)c2)c1 | -0.327
39 | CC(=O)c1cccc(NC(=O)N2CCCC2C(=O)Nc2ccccc2C)c1 (configuration not stated) | 0.393
40 | Cc1ccc(C(=O)N/N=C(/CC(=O)c2cccs2)C(F)(F)F)cc1 | active: 7.05
41 | C=C(C)Cn1c(N2CCN(CC)CC2)nc2c1c(=O)[nH]c(=O)n2C | -0.119
42 | C/C(Cn1cnc([N+](=O)[O-])n1)=N\NC(=O)c1ccc(F)cc1 | -0.212
43 | Cc1ccc(NS(=O)(=O)c2ccc(Cl)s2)cc1S(=O)(=O)N(C)C | 0.393
44 | CCOc1cc(C2C(C(=O)OCC(C)C)=C(C)N=C3SCCC(=O)N32)ccc1OC(C)=O (configuration not stated) | -0.787

Row | Compound | z-score
45 | O=c1cc(-c2ccco2)oc2ccc(Cl)cc12 | -0.578
46 | CC(Sc1ccc(Cl)cc1)C(=O)Nc1ccccc1C(=O)N1CCOCC1 (configuration not stated) | -0.128
47 | CC1(C)CC2CC(C)(CN2S(=O)(=O)c2cccc(N)c2)C1 (configuration not stated) | 0.33
48 | O=C(CN1C(=O)COc2ccc(S(=O)(=O)N3CCCC3)cc21)NC1CCCCCCC1 | -0.315
49 | O=C(CCCCl)Oc1ccc2cc(-c3ccc4ccccc4n3)c(=O)oc2c1 | -0.189
50 | CCCSC1=N/C(=C\C=C\c2ccco2)C(=O)S1 | -0.777
51 | Oc1ccccc1-c1cc(-c2ccccc2)no1 | 0.0134
52 | O=Nc1c(O)n(Cc2c(Cl)cccc2Cl)c2ccccc12 | -0.331
53 | Cc1cc(COc2ccccc2O)on1 | -0.116
54 | CC(=O)/C(=N/Nc1cccc(C)c1)N1CCOCC1 | -0.158
55 | O=[N+]([O-])c1ccc(N2CCN(S(=O)(=O)c3ccc(Cl)cc3)CC2)cc1NCC1CCCO1 (configuration not stated) | -0.211
56 | Cc1cccc(N2CCN(C(=O)C(C)n3nc(C)n4c(cc5occc54)c3=O)CC2)c1C (configuration not stated) | 0.0787
57 | COCC(=O)NCCc1ccc(S(N)(=O)=O)cc1 | 0.0312
58 | CCC(=O)c1cc2c(C)cc(=O)oc2c(C)c1OC(=O)C(C)C | 0.0468
59 | CCOC(=O)Cn1c(-c2ccccn2)nc2ccccc21 | 0.901
60 | Cc1cc(C)n2[nH]c(=O)c(N=Nc3cccc(C(F)(F)F)c3)c2n1 | 0.14
61 | COc1cccc(NC2CC(=O)N(CCc3ccccc3)C2=O)c1 (configuration not stated) | 0.0463
62 | CCc1c(C)nc2ncnn2c1N1CCC(C(=O)NCc2cccc(OC)c2)CC1 | 0.0344
63 | O=C(Cn1nnc(-c2ccccc2NC(=O)c2cccs2)n1)Nc1ccccc1 | -0.11
64 | CCOC(=O)C1(C)NC(c2ccc(OC)cc2OC)C2C(=O)N(c3cccc(OC)c3)C(=O)C21 (configuration not stated) | -0.142
65 | O=C(Nc1ncn[nH]1)c1ccc(Cl)c(S(=O)(=O)Nc2ccc(Cl)cc2)c1 | 0.47
66 | Cc1ccc(S(=O)(=O)Cn2nnnc2C(c2ccccc2)N2CCN(c3ncccn3)CC2)cc1 (configuration not stated) | 0.533

Row | Compound | z-score
67 | CC(C)(C)c1cc(NC(=O)C2CCCO2)no1 (configuration not stated) | -0.542
68 | Cc1ccc(-c2nnc3n2N=C(c2ccc(Br)cc2)CS3)cc1 | 0.401
69 | CC(=O)c1c(C)nc(-c2ccc(Cl)cc2)nc1NC(=O)C(C)C | -0.967
70 | O=C(Nc1nccs1)c1ccc(Cl)c(S(=O)(=O)N2CCOCC2)c1 | 0.0713
71 | CCS(=O)(=O)N1CCCC(C(=O)NCc2ccc3c(c2)OCO3)C1 (configuration not stated) | 0.172
72 | Cc1cc(C)n2nc(CCc3ccccc3)nc2n1 | -0.0448
73 | COC(=O)CCN(C(=O)c1cccc(OC(C)=O)c1)c1ccccn1 | 0.19
74 | COc1ccc(N=C2S/C(=C\c3cc(C)n(C)c3C)C(=O)N2CC(C)C)cc1 | -0.473
75 | CC1=NN(c2ccccc2)C(=O)/C1=C/c1cccs1 | -0.364
76 | CCn1c(=O)cc(OCC(=O)Nc2ccccc2C#N)c2ccccc21 | 0.787
77 | CCN1CCN(c2nc3sc4c(c3c(=O)n2-c2ccc(OC)cc2)CCCCC4)CC1 | -0.199
78 | Cc1ccccc1NS(=O)(=O)c1cc(S(C)(=O)=O)ccc1Cl | -0.0663
79 | COc1ccc(C2CC(C(F)(F)F)n3nc(C(=O)Nc4c(C)n(C)n(-c5ccccc5)c4=O)c(Cl)c3N2)cc1 (configuration not stated) | -0.209
80 | O=C(NCc1ccc(C(F)(F)F)cc1)C12CN(Cc3ccccc3)CC1C(c1cccc([N+](=O)[O-])c1)=NO2 (configuration not stated) | -0.00487
81 | COC(=O)Cc1cc(=O)n(-c2nc3ccccc3s2)[nH]1 | -0.0486
82 | CC(C)c1nc(SCC(=O)c2ccccc2)c2c(=O)n(C)c(=O)n(C)c2n1 | -0.239
83 | O=C(c1cccc(C(=O)N2CCN(c3ncccn3)CC2)c1)N1CCN(c2ncccn2)CC1 | 0.184
84 | COc1ccc(NC(=O)c2c(OC)cccc2OC)c(OC)c1 | -0.249
85 | CCN(CC)C(=O)c1ccc(NS(=O)(=O)c2ccccc2)cc1 | 0.525
86 | CCCN1C(=O)c2ccc(C(=O)Nc3cc(C)on3)cc2C1=O | -0.103
87 | Cc1cccc(Nc2ccc([N+](=O)[O-])cc2C(=O)O)c1 | -0.32
88 | CCOC(=O)CC(NC(=O)c1cc2cccc(OC)c2oc1=O)c1cccc([N+](=O)[O-])c1 (configuration not stated) | -0.293

Row | Compound | z-score
89 | COc1ccccc1NC(=S)N(CCc1nc2cc(C)c(C)cc2[nH]1)Cc1cccnc1 | 0.23
90 | CC(C)Nc1nnc(Sc2ccc(Cl)cc2[N+](=O)[O-])s1 | 1.29
91 | CCNc1ccc(S(=O)(=O)N(C)C)cc1NCC(=O)Nc1ccc(F)c(Cl)c1 | 0.204
92 | O=C(COC(=O)/C=C/c1ccc2c(c1)OCO2)Nc1ccc(S(=O)(=O)N2CCCC2)cc1 | -0.182
93 | CSc1nc(C)cc(/C=C\c2ccccc2)c1C#N | -0.0716
94 | CCOC(=O)c1nn(-c2ccc(F)cc2)c(-c2ccccc2)c1C(=O)c1ccccc1 | -0.126
95 | CC(C)c1nnc(NC(=O)CCC(=O)NCc2ccc3c(c2)OCO3)s1 | 0.746
96 | Cc1ccccc1NC(=O)NCCCN1CCN(c2ccccc2)CC1 | -0.104
97 | C/C(CC(C)C)=N\NC(=O)Nc1ccccc1 | 1.35
98 | C1CCC2(CC1)OCC1(CO2)COC2(CCCCC2)OC1 | active: 3.83
99 | CC(C)CCNC(=O)C12CN(Cc3ccccc3)CC1C(c1cccc([N+](=O)[O-])c1)=NO2 (configuration not stated) | -0.257
100 | CC(=O)Oc1ccc2c(c1)OC(c1ccccc1)CC21CC(C)(C)NC(=S)N1 (configuration not stated) | -0.31
101 | COc1cccc(NC(=O)C(Sc2nc3ccccc3c(=O)n2CC(C)C)c2ccccc2)c1 (configuration not stated) | 2.63
102 | CC(C)NS(=O)(=O)c1ccc(OCC(=O)Nc2ccc3c(c2)OCO3)c(Cl)c1 | active: 3.09
103 | Cc1nc(CS(=O)(=O)c2ccccc2)cc(Sc2ccc(Cl)cc2Cl)n1 | -0.44
104 | O=C(Nc1nc(-c2ccc(Cl)s2)cs1)c1ccncc1 | 0.0724
105 | CCOC(=O)C1Sc2[nH]c(=O)sc2C(c2ccc(Cl)cc2)C1C(=O)OCC (configuration not stated) | -0.162
106 | CSCCC(NS(=O)(=O)c1ccc(Cl)cc1)C(=O)OCC(=O)N1CCOCC1 (configuration not stated) | 0.146
107 | O=C(NC(=S)Nc1cccc(Cl)c1N1CCCCC1)c1ccc2c(c1)OCCO2 | 0.413
